The other results are listed elsewhere or left out. Each Rep nickase domain was tested in vitro on the same pool of single strands (3 µM enzyme, 1 h, 37 °C); shown is the middle of each 90-letter strand. A value is the log2 ratio of uncut reads to the pool without enzyme; strong cutting gives strongly negative numbers. There is no active / inactive call. Because reads are shares of a total, they shift together; where an enzyme cuts many sequences, the uncut ones exceed 0.
Assays:
Assay in all cases: uncleaved DNA left, log2 of reads against the no-enzyme library (log2 ratio); higher = less cleavage (more negative = more Rep cleavage of the k-mer); sequences stand for … in CTCGTCCG…ACCGGAGA
[1] = tested on: T1, Rep nickase domain of Muscovy duck circovirus
T1 sequence (protein, residues 1-111, tag omitted): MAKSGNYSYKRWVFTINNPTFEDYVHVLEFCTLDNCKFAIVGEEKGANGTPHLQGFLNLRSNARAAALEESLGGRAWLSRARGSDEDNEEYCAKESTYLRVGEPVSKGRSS
Protocol: (§1)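 A pool of 90-nt single-stranded DNAs with seven random bases just before the constant AC of the nick site (name = the seven bases) was cut by 3 µM recombinant His6-SUMO-tagged Rep nickase domain (300 nM DNA, 50 mM HEPES pH 8.0, 50 mM NaCl, 1 mM MnCl2, 1 h, 37 °C, three replicates). Uncut DNA was amplified and sequenced.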

[2] = tested on: T2, Rep nickase domain of banana bunchy top virus
T2 sequence (protein, residues 1-94, tag omitted): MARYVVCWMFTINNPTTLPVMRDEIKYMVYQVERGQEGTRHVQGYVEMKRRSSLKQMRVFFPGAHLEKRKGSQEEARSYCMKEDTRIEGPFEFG
Protocol: as §1

[3] = tested on: T3, Rep nickase domain of cabbage leaf curl virus
T3 sequence (protein, residues 1-116, tag omitted): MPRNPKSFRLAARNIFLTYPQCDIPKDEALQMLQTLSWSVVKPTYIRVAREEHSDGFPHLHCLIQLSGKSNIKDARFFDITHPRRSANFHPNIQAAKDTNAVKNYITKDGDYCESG
Protocol: as §1

[4] = tested on: T4, Rep nickase domain of chickpea chlorotic dwarf virus
T4 sequence (protein, residues 1-124, tag omitted): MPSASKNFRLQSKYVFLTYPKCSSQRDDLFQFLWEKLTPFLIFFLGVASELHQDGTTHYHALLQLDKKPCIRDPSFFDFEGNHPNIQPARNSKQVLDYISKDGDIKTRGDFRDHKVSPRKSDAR
Protocol: as §1

[5] = tested on: T5, Rep nickase domain of faba bean necrotic yellows virus
T5 sequence (protein, residues 1-98, tag omitted): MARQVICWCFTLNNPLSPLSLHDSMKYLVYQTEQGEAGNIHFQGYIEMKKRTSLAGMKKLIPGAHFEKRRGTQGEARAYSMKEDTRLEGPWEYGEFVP
Protocol: as §1

[6] = tested on: T6, Rep nickase domain of maize striate mosaic virus
T6 sequence (protein, residues 1-117, tag omitted): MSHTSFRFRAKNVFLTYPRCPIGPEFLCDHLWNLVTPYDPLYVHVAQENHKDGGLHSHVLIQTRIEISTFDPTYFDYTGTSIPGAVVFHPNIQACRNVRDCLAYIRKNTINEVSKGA
Protocol: as §1

[7] = tested on: T7, Rep nickase domain of porcine circovirus 2
T7 sequence (protein, residues 2-116, tag omitted): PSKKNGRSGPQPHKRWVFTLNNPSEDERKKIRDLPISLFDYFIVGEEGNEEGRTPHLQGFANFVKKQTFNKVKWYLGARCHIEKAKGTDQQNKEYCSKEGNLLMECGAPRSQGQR
Protocol: as §1

[8] = tested on: T8, Rep nickase domain of tomato yellow leaf curl virus
T8 sequence (protein, residues 1-136, tag omitted): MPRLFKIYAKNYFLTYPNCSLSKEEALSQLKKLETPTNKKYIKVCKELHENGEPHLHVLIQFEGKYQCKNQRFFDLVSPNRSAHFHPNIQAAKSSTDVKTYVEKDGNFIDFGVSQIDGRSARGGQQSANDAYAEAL
Protocol: as §1

[9] = tested on: T9, Rep nickase domain of wheat dwarf virus
T9 sequence (protein, residues 1-137, tag omitted): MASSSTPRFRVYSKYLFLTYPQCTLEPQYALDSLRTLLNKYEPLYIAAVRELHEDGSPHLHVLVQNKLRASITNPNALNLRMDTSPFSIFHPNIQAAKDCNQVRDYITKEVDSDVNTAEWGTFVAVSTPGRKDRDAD
Protocol: as §1

Row | Sequence | uncleaved DNA left (log2) [1] | uncleaved DNA left (log2) [2] | uncleaved DNA left (log2) [3] | uncleaved DNA left (log2) [4] | uncleaved DNA left (log2) [5] | uncleaved DNA left (log2) [6] | uncleaved DNA left (log2) [7] | uncleaved DNA left (log2) [8] | uncleaved DNA left (log2) [9]
1 | GAGCAAA | 0.0234 | 0.188 | 0.217 | 0.76 | 0.0567 | 0.933 | -0.421 | 0.106 | 0.0764
2 | GTCAGTC | 0.0169 | 0.103 | 0.423 | 1.07 | 0.0414 | 1.48 | 0.0644 | 0.0771 | 0.0863
3 | GGCATTT | -0.0716 | -0.0342 | 0.683 | 1.56 | -0.101 | 2.03 | 0.0111 | -0.0663 | 0.126
4 | TTTGTAA | 0.123 | 0.108 | 0.142 | -0.165 | 0.0508 | 0.05 | 0.149 | 0.111 | 0.0337
5 | TCCCGCG | -0.0237 | -0.0196 | -0.669 | 0.444 | -0.00161 | -0.714 | 0.0219 | -0.0775 | -0.221
6 | GCCATAA | 0.136 | 0.19 | -0.0464 | 0.35 | -0.00967 | -0.14 | 0.0589 | 0.183 | 0.129
7 | GAAGCGT | 0.00847 | -0.00824 | -0.644 | -0.517 | 0.104 | -0.625 | 0.191 | 0.112 | -0.0228
8 | GTCTTCC | -0.0355 | 0.0396 | 0.314 | 0.787 | -0.0111 | 1.61 | 0.00189 | -0.0131 | 0.0181
9 | CTAAGGG | 0.0118 | -0.0353 | -0.219 | -0.0282 | 0.0833 | -0.694 | 0.182 | 0.00584 | -0.0026
10 | TGACTAT | 0.0657 | 0.00897 | 0.365 | 0.489 | 0.0463 | 1.12 | 0.0597 | 0.024 | 0.153
11 | GTCAATA | 0.0354 | 0.0502 | 0.341 | 0.785 | -0.0189 | 1.66 | 0.172 | 0.0384 | 0.162
12 | CGGCCAA | 0.0761 | 0.115 | 0.132 | 0.458 | -0.0417 | 0.252 | -0.0184 | 0.162 | 0.13
13 | TTCAGGC | 0.0431 | 0.00786 | 0.298 | 0.67 | 0.0767 | 0.455 | 0.104 | 0.032 | -0.0507
14 | GGGTTAG | 0.0986 | 0.0627 | 0.684 | 1.68 | -0.0135 | 1.77 | 0.305 | -0.025 | 0.132
15 | GATTTCC | -0.147 | -0.00666 | 0.315 | 0.621 | -0.0134 | 1.14 | -0.0537 | -0.0128 | 0.0315
16 | CTATAGA | 0.0646 | 0.0873 | -0.163 | -0.268 | 0.0951 | -1.15 | 0.0507 | 0.0696 | 0.158
17 | CAGAGGA | 0.0921 | 0.124 | 0.31 | 0.453 | 0.17 | -0.338 | 0.0167 | 0.048 | 0.103
18 | TCAAGAT | 0.1 | 0.136 | 0.23 | 0.835 | 0.127 | 1.48 | 0.189 | -0.0491 | 0.123
19 | TAGAGGC | 0.0537 | -0.0462 | 0.134 | 0.0975 | 0.0442 | -0.569 | -0.00898 | 0.0592 | 0.0103
20 | ATTAGTC | 0.0743 | -0.0352 | -0.0995 | -0.307 | 0.0257 | -0.954 | 0.0482 | -0.0188 | 0.0425
21 | GGCGTAT | -0.0857 | 0.0119 | 0.336 | 1.1 | -0.236 | 1.48 | -0.0129 | 0.053 | 0.0177
22 | CTTTGGT | -0.685 | -0.207 | -0.268 | -0.475 | -0.104 | -0.94 | -1.19 | -0.0797 | -0.157
23 | CGAGAGA | -0.0209 | 0.131 | 0.163 | 0.641 | 0.00138 | 0.189 | -0.00233 | -0.0337 | 0.0575
24 | ACGGATA | -0.0539 | 0.00054 | -0.0572 | 0.241 | 0.0319 | 0.683 | 0.178 | -0.184 | -0.0275
25 | TAAGTAC | -0.0508 | 0.0123 | -0.142 | -1.26 | -0.00755 | -0.554 | 0.036 | 0.0575 | -0.0428
26 | AACTCGC | 0.0429 | -0.00705 | -0.586 | -0.871 | -0.0121 | -1.27 | -0.12 | 0.0316 | -0.0513
27 | TCAGCGT | -0.0971 | -0.186 | -0.795 | -0.599 | -0.00106 | -0.926 | 0.127 | 0.0504 | -0.142
28 | ATGCTCT | -0.0773 | -0.183 | -0.33 | -1.96 | -0.115 | -0.803 | -0.266 | -0.0121 | -0.116
29 | ACATAAC | -0.0539 | -0.0801 | -0.623 | -1.41 | -0.000751 | -1.07 | 0.0727 | -0.14 | -0.0789
30 | CATCAAT | 0.141 | 0.158 | 0.333 | 0.423 | 0.0957 | 0.298 | -0.136 | 0.14 | 0.204

Source: the supplement of paper PMC7826260
